Test results as given in PubChem BioAssay AID651812 (National Center for Advancing Translational Sciences (NCATS), 2012).
Screen size: about 2,100 compounds; about 650 (31%) were called active. The inconclusive results got no clear call from the source; some entries with a clear call stand among them for comparison. Calls follow the shape of the dose curve; as a rule, active = well fitted inhibition curve with a large enough effect; inconclusive = small, poorly fitted or top-dose-only effect; inactive = flat fitted curve, though single readings scatter. Potencies of inconclusive entries are left out as doubtful fits.
Potency is read from the fitted curve at half-maximal effect; tags tell the direction and shape of the fitted curve.

Assay: qHTS for inhibitors of Vif-A3G interactions: Cherry picks; also: nearly all actives have a fitted effect of over 80% in size; as to activity, negative = fluorescence increase: % of control where 0% means no effect
Details: HeLa A3G-eYFP + Vif (tagged APOBEC3G with the HIV-1 protein that degrades it), 24 h; Potency: eYFP fluorescence increase unless noted; activity, negative = fluorescence increase: at 36.9 µM (top of the series) unless noted
Procedure, shortened: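 HeLa cells stably expressing A3G-eYFP and Vif, cultured overnight then exposed to compounds at several concentrations for 24 hours at 37 C, 5% CO2; cellular yellow fluorescence (488 nm ex, 500-530 nm em) imaged on Acumen, MG132 positive control.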
For `COc1ccc(CN=Cc2[nH]c3ccc(Br)c(Cl)c3c2O)cc1`, the Potency was inconclusive [inhibitor, single point]. In the case of `CCC(C)Sc1ccc(-c2nc3cc(C)ccn3c2NC2CCCCC2)cc1` (centres undefined), the “activity, negative = fluorescence increase” value is reported as inactive: -1.53% [at 46.1 µM]. With `CCCCCCNc1ccc(/C=C/c2ccnc3ccccc23)cc1` the Potency was inconclusive [inhibitor, single point]. In the case of `CC(=O)c1ccc(-c2ccc(C(=O)Nc3nc(-c4ccccn4)cs3)o2)cc1`, the Potency is reported as inconclusive [inhibitor, single point]. For `Cc1cccc2c(=O)n3c(cc12)-c1[nH]c2ccccc2c1CC3`, the Potency was inconclusive [inhibitor, single point]. With `CC(C)n1cnc2c(NCc3ccccc3)cc(N[C@H](C)CO)cc21` the Potency was inconclusive [inhibitor, single point]. In the case of `O=C(COC(=O)c1ccc(NS(=O)(=O)c2cccs2)cc1)NCc1ccco1`, the “activity, negative = fluorescence increase” value is reported as inactive: -2.14%. With `Cc1cc2nc3c(=O)n(CCc4ccccc4)c(=O)[nH]c3nc2cc1N` the Potency was inconclusive [inhibitor, single point]. In the case of `S=C(NCCSCc1ccc(Cl)cc1)Nc1ccccc1`, the Potency is reported as inconclusive [inhibitor, partial curve, poor fit]. For `COc1ccc2c(c1)c1nc3ccccc3nc1n2Cc1ccc(OC)c(OC)c1`, the Potency was inconclusive [inhibitor, single point]. In the case of `C[N+](C)(C)CCC(=O)N1C/C(=C/c2ccccc2)C(=O)/C(=C\c2ccccc2)C1`, the Potency is reported as inconclusive [inhibitor, single point]. For `O=[N+]([O-])c1ccc(Oc2cccc3cccnc23)c([N+](=O)[O-])c1`, the Potency was inconclusive [inhibitor, single point]. For `CSc1nsc(/C=C/Nc2ccc(Cl)cc2)c1C#N`, the Potency was inconclusive [inhibitor, single point]. In the case of `CN(C)CCN(C(=O)/C=C/c1cccs1)c1nc2c(F)cc(F)cc2s1`, the “activity, negative = fluorescence increase” value is reported as inactive: -2.76% [at 46.1 µM]. With `O=C(O)CCCNc1cc(N2CCN(C(=O)c3ccco3)CC2)c2noc3c2c1C(=O)c1ccccc1-3` the Potency was inconclusive [inhibitor, single point]. With `COc1ccc(OC)c(CNc2nc3ccc(C)cc3n3nnnc23)c1` the Potency was inconclusive [inhibitor, single point]. In the case of `CCCC(=O)NC1=C(Cl)C(=O)c2ccccc2C1=O`, the Potency is reported as inconclusive [inhibitor, partial curve, poor fit]. In the case of `CC(C)c1cccc(-c2ccc3c(c2)S(=O)(=O)c2cccc(C(=O)NCc4ccccc4)c2C3=O)c1`, the Potency is reported as inconclusive [inhibitor, partial curve]. For `COc1ccc2oc(=N)c(C(=O)Nc3ccc(F)cc3)cc2c1`, the Potency was inconclusive [inhibitor, single point]. For `N#CC(C(=S)Nc1ccccc1)c1nc2ccccc2[nH]1` (centres undefined), the “activity, negative = fluorescence increase” value was inactive: -46.8% [at 46.1 µM]. In the case of `O=C(c1ccccn1)C1CCCN(Cc2cn[nH]c2-c2cc3ccccc3o2)C1` (centres undefined), the “activity, negative = fluorescence increase” value is reported as inactive: -0.654%. For `Cc1ccc(/C=C2/NC(=O)N(Cc3ccccc3)C2=O)s1`, the Potency was active: 23.1 µM. For `COc1cccc(C(=O)Nc2sc3c(c2C#N)CCN(C(C)=O)C3)c1`, the “activity, negative = fluorescence increase” value was inactive: -8.68%. For `C=CCN1C=CC(=C/C=C(/C#N)C(=O)OCC)C=C1`, the Potency was inconclusive [inhibitor, single point]. With `COc1cc(/C=C/C(=O)c2ccc3c(c2)OCCO3)cc(Br)c1OCC(=O)N(C)C` the Potency was inconclusive [inhibitor, single point]. For `CCN(CC)c1nc2ccccc2nc1C(C#N)C(=O)NCCc1ccccc1` (centres undefined), the Potency was active: 3.66 µM. In the case of `CC(C)C1C(=O)N(Cc2cn(CCC3OCCCO3)nn2)CCS(=O)(=O)N1Cc1ccc(-c2cccc(CO)c2)cc1` (centres undefined), the “activity, negative = fluorescence increase” value is reported as inactive: -11.4%. For `CCCCOC(=O)Cn1c2ccc(OC)cc2c2nc3ccccc3nc21`, the Potency was inconclusive [inhibitor, single point]. With `Cc1c(C(=O)C(=O)N2CCCc3ccccc32)c2ccccc2n1C` the “activity, negative = fluorescence increase” value was inactive: -1.01%. In the case of `CC(C)CSC1=NSC2=NC(=O)/C(=C\c3coc4ccccc4c3=O)C(=N)N12`, the Potency is reported as inconclusive [inhibitor, single point]. In the case of `CCOc1ccc(-c2cc(C(=O)NCCc3ccc(OC)c(OC)c3)c3c(-c4ccc(F)cc4)[nH]nc3n2)cc1`, the Potency is reported as inconclusive [inhibitor, partial curve, poor fit]. For `Cc1ccnc(NC(=O)Nc2ccc3c(c2)N(C)C(=O)CS3)c1`, the Potency was inconclusive [inhibitor, single point]. With `Cc1ccc(N=C2NC(=O)/C(=C/c3cccn3C)S2)cc1` the Potency was inconclusive [inhibitor, single point]. With `COc1ccc(N/C=C\C(=O)c2ccc(Br)cc2)cc1OC` the Potency was inconclusive [inhibitor, single point]. For `CCN(CC)c1ccc(/C=C/C2=C3C=CC=CC3NC=C2)cc1` (centres undefined), the Potency was active: 18.4 µM. For `CCOc1ccc(CN2C(=O)c3ccccc3Sc3ccc(C(=O)O)cc32)cc1`, the “activity, negative = fluorescence increase” value was inactive: 0.283% [at 46.1 µM]. With `Cc1ccc(NC(=O)/C(C#N)=C/c2ccc(C)s2)c(C)c1` the Potency was inconclusive [inhibitor, single point]. With `CCCOc1ccc(NC(=O)CC2C(=O)N(c3ccc(OCC)cc3)C(=S)N2C2CC2)cc1` (centres undefined) the Potency was inconclusive [inhibitor, single point]. With `CN(C)c1ccc(C2C=C(c3ccccc3)Nc3nnnn32)cc1` (centres undefined) the Potency was inconclusive [inhibitor, single point]. In the case of `CC1(C)Cc2ccccc2C2CC(O)C(=O)N21` (centres undefined), the Potency is reported as inconclusive [inhibitor, single point]. For `O=C1N/C(=C\c2ccccc2)c2ccccc21`, the “activity, negative = fluorescence increase” value was inactive: -6.2%. In the case of `COc1cccc(C2CC(c3ccccc3)=NN2S(=O)(=O)c2ccc(C)cc2)c1OC` (centres undefined), the Potency is reported as inconclusive [inhibitor, single point]. For `N#CC(C#N)=C1C=C2C=C(N3CCOCC3)CCC2CC1` (centres undefined), the Potency was inconclusive [inhibitor, full curve, poor fit]. In the case of `c1ccc2c(c1)nc(NCC1CCCO1)c1nnnn12` (centres undefined), the Potency is reported as inconclusive [inhibitor, single point]. For `COc1ccc2c(c1)N(C)/C(=C/c1cccc[n+]1C)S2`, the Potency was active: 14 µM. For `C=CCn1cc(/C=C/c2cc[n+](C)cc2)c2ccccc21`, the Potency was active: 7.04 µM. In the case of `Cc1cc(C(F)(F)F)c(C#N)c(SCC(=O)Nc2nc3ccccc3s2)n1`, the Potency is reported as active: 18.4 µM. With `COc1cc(C(=O)N/N=C/c2ccccn2)cc(OC)c1OC` the “activity, negative = fluorescence increase” value was inactive: -9.13%. With `Cc1ccc(C)c(Cn2c(=O)n(CCCC(=O)NCc3ccco3)c(=O)c3sccc32)c1` the “activity, negative = fluorescence increase” value was inactive: -1.81%. With `Cn1cccc1/C=C1\SC(=Nc2ccccc2)NC1=O` the “activity, negative = fluorescence increase” value was inactive: -0.492%. For `CCc1ccc2nc(N(CCCN(C)C)C(=O)c3ccc(S(=O)(=O)N(C)C4CCCCC4)cc3)sc2c1`, the “activity, negative = fluorescence increase” value was inactive: 0.585%. For `O=C/C(=C\Nc1ccccn1)c1nc2ccccc2o1`, the Potency was inconclusive [inhibitor, single point]. With `O=C1C(Cl)=C(NCCc2ccccc2)C(=O)c2ccccc21` the Potency was inconclusive [inhibitor, single point]. For `CCN1CCc2nc3sc(C(=O)c4ccccc4)c(N)c3cc2C1`, the Potency was inconclusive [inhibitor, single point]. For `Cc1ccc(NC(=O)CSc2ccccc2NC(=O)c2cccc(Cl)c2)cc1Cl`, the “activity, negative = fluorescence increase” value was inactive: 2.74% [at 46.1 µM]. In the case of `O=C(Nc1ccc(N2CCN(C(=O)c3ccccc3)CC2)cc1)c1ccc([N+](=O)[O-])o1`, the Potency is reported as inconclusive [inhibitor, single point]. In the case of `Cc1ccc(NC(=O)c2ccc(NCCCN3CCC(C)CC3)c([N+](=O)[O-])c2)cc1F`, the Potency is reported as inconclusive [inhibitor, single point]. With `CN1/C(=C\C=C(/C#N)C(=O)Nc2ccc(Cl)cc2)C(C)(C)c2ccccc21` the Potency was active: 4.98 µM. For `Oc1[nH]c2ccccc2c1N=Nc1c(F)c(F)c(F)c(F)c1F`, the Potency was inconclusive [inhibitor, single point]. For `Nc1c(C(=O)O)sc2nc(-c3ccc(F)cc3)cc(-c3ccccc3)c12`, the Potency was inconclusive [inhibitor, single point]. For `COc1cc(/C=C(\C#N)c2nc3ccccc3[nH]2)ccc1Oc1ccc([N+](=O)[O-])cn1`, the Potency was inconclusive [inhibitor, single point]. With `Cc1ccc2ccc3c(c2n1)NS(=O)(=O)c1ccc(C(F)(F)F)cc1-3` the “activity, negative = fluorescence increase” value was inactive: -3.25% [at 46.1 µM]. With `Cc1ccc(C2C(C(=O)c3cccs3)=C(O)C(=O)N2c2nnc(C)s2)cc1` (centres undefined) the Potency was inconclusive [inhibitor, single point]. For `CN1C2CCC1/C(=C\c1ccccc1)C(=O)/C2=C\c1ccccc1`, the Potency was inconclusive [inhibitor, single point]. With `CC(=O)Oc1cccc(N2C(=O)c3cccc4c([N+](=O)[O-])ccc(c34)C2=O)c1` the Potency was inconclusive [inhibitor, partial curve]. For `Cc1cc[n+](C2CCCCC2)cc1`, the Potency was inconclusive [inhibitor, single point]. For `CC(=O)Oc1c(-c2ccc(Br)o2)oc2ccccc2c1=O`, the Potency was inconclusive [inhibitor, single point]. In the case of `CCN1C(=O)/C(=C2/Sc3ccc(OC)cc3N2C)SC1=Nc1cccc(O)c1`, the Potency is reported as inconclusive [inhibitor, single point]. In the case of `N#CCSc1ccccc1NC(=O)CN1C(=O)NC(CCc2ccccc2)C1=O` (centres undefined), the Potency is reported as inconclusive [inhibitor, partial curve].
